This is one part of the list. The data describe in vitro nicking of single-stranded DNA by Rep domains for 1 h at 37 °C with 3 µM enzyme; only the middle of the 90-letter strands is printed. The score is log2 (uncut reads / reads without enzyme); the lower, the more was cut; hits are not called. The scaling is to total reads; where an enzyme cuts many sequences, the uncut ones exceed 0.
Key:
Assay in all cases: uncleaved DNA left, log2 of reads against the no-enzyme library (log2 ratio); higher = less cleavage (more negative = more Rep cleavage of the k-mer); sequences stand for … in CTCGTCCG…ACCGGAGA
[1] = test system: T1, Rep nickase domain of Muscovy duck circovirus
T1 sequence (residues 1-111 of Rep, tag left off): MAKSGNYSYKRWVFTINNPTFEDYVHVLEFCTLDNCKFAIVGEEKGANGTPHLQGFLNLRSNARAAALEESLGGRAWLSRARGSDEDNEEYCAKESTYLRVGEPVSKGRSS
Procedure: (§1)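 A pool of 90-nt single-stranded DNAs with seven random bases just before the constant AC of the nick site (name = the seven bases) was cut by 3 µM recombinant His6-SUMO-tagged Rep nickase domain (300 nM DNA, 50 mM HEPES pH 8.0, 50 mM NaCl, 1 mM MnCl2, 1 h, 37 °C, three replicates). Uncut DNA was amplified and sequenced.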

[2] = test system: T2, Rep nickase domain of banana bunchy top virus
T2 sequence (residues 1-94 of Rep, tag left off): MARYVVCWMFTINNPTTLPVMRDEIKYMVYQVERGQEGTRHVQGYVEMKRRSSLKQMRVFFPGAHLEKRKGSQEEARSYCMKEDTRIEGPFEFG
Procedure: as §1

[3] = test system: T3, Rep nickase domain of cabbage leaf curl virus
T3 sequence (residues 1-116 of Rep, tag left off): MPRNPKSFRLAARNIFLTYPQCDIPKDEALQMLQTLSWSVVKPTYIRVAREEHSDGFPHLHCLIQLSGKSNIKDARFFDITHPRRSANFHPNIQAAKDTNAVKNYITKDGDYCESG
Procedure: as §1

[4] = test system: T4, Rep nickase domain of chickpea chlorotic dwarf virus
T4 sequence (residues 1-124 of Rep, tag left off): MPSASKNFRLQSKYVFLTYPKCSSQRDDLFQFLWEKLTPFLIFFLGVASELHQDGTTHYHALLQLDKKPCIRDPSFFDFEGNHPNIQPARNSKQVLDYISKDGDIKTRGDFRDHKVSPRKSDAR
Procedure: as §1

[5] = test system: T5, Rep nickase domain of faba bean necrotic yellows virus
T5 sequence (residues 1-98 of Rep, tag left off): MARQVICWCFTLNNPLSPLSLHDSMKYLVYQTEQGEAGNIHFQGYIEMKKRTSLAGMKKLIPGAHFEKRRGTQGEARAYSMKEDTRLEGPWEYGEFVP
Procedure: as §1

[6] = test system: T6, Rep nickase domain of maize striate mosaic virus
T6 sequence (residues 1-117 of Rep, tag left off): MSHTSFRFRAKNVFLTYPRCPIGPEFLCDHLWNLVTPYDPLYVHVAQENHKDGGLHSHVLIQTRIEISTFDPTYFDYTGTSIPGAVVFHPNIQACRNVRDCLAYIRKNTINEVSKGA
Procedure: as §1

[7] = test system: T7, Rep nickase domain of porcine circovirus 2
T7 sequence (residues 2-116 of Rep, tag left off): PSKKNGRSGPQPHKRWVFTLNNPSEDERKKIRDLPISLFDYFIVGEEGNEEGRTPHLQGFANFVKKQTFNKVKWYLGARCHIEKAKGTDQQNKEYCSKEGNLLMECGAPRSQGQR
Procedure: as §1

[8] = test system: T8, Rep nickase domain of tomato yellow leaf curl virus
T8 sequence (residues 1-136 of Rep, tag left off): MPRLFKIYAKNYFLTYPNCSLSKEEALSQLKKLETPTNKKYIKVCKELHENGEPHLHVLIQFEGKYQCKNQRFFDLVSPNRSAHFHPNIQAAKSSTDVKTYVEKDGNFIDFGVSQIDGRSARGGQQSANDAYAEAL
Procedure: as §1

[9] = test system: T9, Rep nickase domain of wheat dwarf virus
T9 sequence (residues 1-137 of Rep, tag left off): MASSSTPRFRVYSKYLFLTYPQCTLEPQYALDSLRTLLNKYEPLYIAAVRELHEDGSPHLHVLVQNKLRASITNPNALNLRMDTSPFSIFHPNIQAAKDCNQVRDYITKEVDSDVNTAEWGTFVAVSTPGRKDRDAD
Procedure: as §1

Sequence | uncleaved DNA left (log2) [1] | uncleaved DNA left (log2) [2] | uncleaved DNA left (log2) [3] | uncleaved DNA left (log2) [4] | uncleaved DNA left (log2) [5] | uncleaved DNA left (log2) [6] | uncleaved DNA left (log2) [7] | uncleaved DNA left (log2) [8] | uncleaved DNA left (log2) [9]
CCTATTC | -0.0719 | -0.029 | -0.0596 | -0.262 | -0.0261 | -0.971 | 0.0485 | 0.00308 | -0.0155
AGTGTAG | -0.0365 | 0.000486 | -0.525 | -0.469 | 0.00567 | -1.11 | 0.152 | 0.0494 | -0.119
CTTACGC | -0.0222 | -0.0633 | -0.109 | -0.914 | 0.0479 | -0.808 | 0.0557 | 0.095 | -0.0548
GATAGCG | 0.033 | -0.043 | -0.718 | 0.684 | 0.00507 | -0.517 | -0.028 | -0.0181 | -0.105
CTCAACA | -0.0348 | 0.0651 | -0.189 | -2.37 | 0.119 | -0.669 | -0.247 | -0.0245 | 0.133
GCCTCGA | 0.152 | -0.0488 | -0.0272 | -0.0142 | 0.0536 | -0.54 | 0.0168 | 0.0243 | -0.0557
GGAAGCC | -0.000112 | 0.0825 | 0.52 | 1.13 | -0.0141 | 1.44 | 0.162 | 0.0675 | 0.102
TGCTTTT | -2.76 | -0.232 | -0.0169 | -1.91 | -0.174 | -0.561 | -3.25 | -0.0182 | -0.104
GTAATGC | 0.0809 | 0.115 | 0.0545 | 0.283 | 0.0847 | -0.474 | 0.173 | 0.142 | -0.0336
TAACTTT | -0.2 | -0.0481 | -3.89 | -3.5 | 0.0751 | -2.82 | -1.81 | 0.101 | -3.76
ATCGAGG | 0.0754 | 0.0257 | 0.298 | 1.13 | 0.102 | 0.911 | 0.125 | -0.111 | 0.0378
AGAAAAC | 0.0545 | 0.0482 | 0.153 | 0.0543 | -0.00733 | -0.363 | 0.042 | -0.0389 | 0.0476
ACTCTTA | -0.104 | -0.209 | -0.147 | -1.51 | 0.0259 | -0.915 | -0.1 | -0.102 | 0.00522
AAGCTAA | 0.0312 | 0.0606 | 0.12 | 0.291 | 0.102 | 0.687 | 0.0732 | 0.0154 | 0.176
TCAAACG | -0.0174 | -0.00418 | -0.814 | -0.656 | -0.0203 | -1.27 | 0.18 | -0.00558 | -0.0843
TATCGGG | -0.0204 | -0.0274 | -0.0615 | -0.00914 | -0.101 | -0.502 | 0.0926 | -0.0788 | -0.218

Source: the supplement of paper PMC7826260
